Reference: PubChem BioAssay AID686979 (National Center for Advancing Translational Sciences (NCATS), 2013)
The whole screen tested about 420,000 compounds, of which about 50,000 (12%) were called active. The shares of active, inactive and inconclusive entries below differ from those in the screen. Calls come from the whole dose curve; as a rule, active = well fitted inhibition curve with a large enough effect; inconclusive = small, poorly fitted or top-dose-only effect; inactive = flat fitted curve, though single readings scatter. No potency is given beside an inconclusive call; the fits are too rough.

Test: qHTS for Inhibitors of human tyrosyl-DNA phosphodiesterase 1 (TDP1): qHTS in cells in presence of CPT; note: nearly all actives have a fitted effect of over 55% in size
Conditions: chicken DT40 Tdp1-/-;hTDP1 cells + 20 nM CPT, ATP luminescence, 48 h; activity change, negative = growth inhibition: at 46.2 µM (top of the series) unless noted
Method in brief: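 Chicken DT40 Tdp1-/- cells stably complemented with human TDP1 were seeded at 400 cells/well in medium containing 20 nM camptothecin, exposed to pin-transferred compounds, and grown at 37 °C for at least 48 hr. Viability was read as ATP luminescence.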
% is set by controls: 0 for no effect and ±100 for the full control effect; potency is the fitted concentration of half-maximal effect; tags give direction and shape of the fitted curve.

Row | SMILES | Potency | activity change, negative = growth inhibition
1 | CCOc1cc(C(=O)CSc2nnc(CNc3ccc(Cl)cc3)o2)ccc1NC(=O)CC | inconclusive [inhibitor, single point] | –
2 | O=C(NCc1cccc(F)c1)c1ccc(-n2cnc3cccnc32)cc1 | inconclusive [inhibitor, partial curve] | –
3 | Cc1cccc(Cn2cc(C(=O)Nc3ccc(F)c(C(F)(F)F)c3)ccc2=O)c1 | active: 23.1 µM | –
4 | c1ccc(N2CCN(c3ccccc3)C2c2ccncc2)cc1 | – | inactive: -27.3%
5 | Cc1cc(Cl)c(OCCOCCN2CCCC(C)C2)c(Br)c1 (stereo not drawn) | active: 29.1 µM | –
6 | CCc1ccc2oc(-c3ccc(NC(=O)c4ccc(OC)c(Br)c4)cc3)nc2c1 | – | inactive: -15.1%
7 | CC(CC(F)(F)F)N1CCC(n2nccc2NC(=O)CCOc2ccccc2)CC1 (stereo not drawn) | – | inactive: -12.7%
8 | COc1ccc(-n2ccnc(SCC(=O)NCc3ccccc3Cl)c2=O)cc1 | inconclusive [inhibitor, single point] | –
9 | CCOC(=O)c1ccc(S(=O)(=O)N2CCN(C(=O)c3cccc(S(=O)(=O)N4CC(C)OC(C)C4)c3)CC2)cc1 (stereo not drawn) | active: 16.4 µM | –
10 | O=C(Nc1nccs1)C1CC=CCC1C(=O)OCC(F)(F)C(F)F (stereo not drawn) | – | inactive: 0.688%
11 | Cc1ccc(-n2c(C)nc3c(cnn3-c3ccccc3C)c2=O)cc1F | inconclusive [inhibitor, single point] | –
12 | COc1ccc2c(-c3ccccc3)cc(SCC(=O)N(C)C)nc2c1 | inconclusive [inhibitor, single point] | –
13 | CCOC(=O)c1csc(N/N=C2\CCCc3ccccc32)n1 | inconclusive [inhibitor, single point] | –
14 | CC(C)NC(=O)N(C)C[C@H]1OCc2cnnn2CCCC(=O)N([C@@H](C)CO)C[C@H]1C | – | inactive: -13.4%
15 | N/C(COc1ccc(Cl)cc1Cl)=N\NS(=O)(=O)c1ccccc1 | – | inactive: -11.8%
16 | COc1ccccc1C1CCN(C(=O)c2cccc([N+](=O)[O-])c2)CC1 | inconclusive [inhibitor, single point] | –
17 | O=C(/C=C/c1ccc(S(=O)(=O)N2CCOCC2)cc1)NC(=S)Nc1ccc(Cl)cc1Cl | inconclusive [inhibitor, single point] | –
18 | CC(C)(C)C1CCC(=O)N2CCC[C@]2(c2ccccc2)C1 (stereo partly drawn) | inconclusive [inhibitor, single point] | –
19 | c1cncc(-c2nn3c(Cn4nnc5ccccc54)nnc3s2)c1 | inconclusive [inhibitor, single point] | –
20 | CCOC(=O)[C@]12CCCC=C1N(Cc1ccc(Cl)cc1Cl)C(=O)[C@H](CC(=O)NCCc1ccccc1OC)C2 | inconclusive [inhibitor, single point] | –
21 | COc1ccc(-c2cc(C(=O)NCC(C)C)no2)cc1 | – | inactive: -22.1%
22 | C/C(=N\NC(=O)c1nnn(-c2nonc2N)c1-c1ccc2c(c1)OCO2)c1ccc(C)cc1 | inconclusive [inhibitor, single point] | –
23 | Cc1ccc(S(=O)(=O)N2CCN(C(=O)/C=C/c3ccccc3)CC2)cc1C | inconclusive [inhibitor, single point] | –

Row | SMILES | Potency | activity change, negative = growth inhibition
24 | CC1C(=O)CC(c2ccc([N+](=O)[O-])cc2)NC1c1ccc([N+](=O)[O-])cc1 (stereo not drawn) | inconclusive [inhibitor, full curve] | –
25 | Cc1ccc(-c2cc(C(F)(F)F)n3nc(C(=O)Nc4ccc(Cl)c(C(F)(F)F)c4)cc3n2)cc1 | – | inactive: -8.14%
26 | COc1ccc(NC(=O)Cn2nnc(-c3ccccc3NS(=O)(=O)c3ccc(OC)cc3)n2)cc1 | inconclusive [inhibitor, single point] | –
27 | Cc1ccc(NC(=O)COc2ccccc2[N+](=O)[O-])nc1 | – | inactive: 2.17%
28 | COCC(=O)N(Cc1cc2ccc(C)c(C)c2n2nnnc12)C1CCCC1 | inconclusive [inhibitor, single point] | –
29 | Cc1cc(C)cc(NC(=O)c2cc(S(=O)(=O)NCc3ccco3)ccc2F)c1 | inconclusive [inhibitor, single point] | –
30 | Cc1ccc([C@H]2C(C(=O)O)=CC[C@@H](c3ccc4c(c3)OCO4)N2S(=O)(=O)c2ccc(C)cc2)cc1 | – | inactive: -22.6%
31 | COc1cc(CC(=O)Nc2ccc3nc(SC)sc3c2)cc(OC)c1OC | inconclusive [inhibitor, single point] | –
32 | Cn1cc(S(=O)(=O)c2ccccc2)c(=O)c2cc(F)c(N3CCN(c4ccccc4)CC3)cc21 | inconclusive [inhibitor, partial curve] | –
33 | CCN1CCN(S(=O)(=O)c2ccc(Cl)c(C(=O)N(C)C(c3ccccc3)c3ccccc3)c2)CC1 | inconclusive [inhibitor, single point] | –
34 | Cc1cccc(C(=O)N2CCCC(CCC(=O)N3CCN(c4ccccn4)CC3)C2)c1 (stereo not drawn) | inconclusive [inhibitor, single point] | –
35 | O=C(NCc1ccco1)C(c1ccco1)N(Cc1cccs1)C(=O)Cn1nnc2ccccc21 (stereo not drawn) | inconclusive [inhibitor, single point] | –
36 | CCCn1c(C(C)Nc2nc(-c3ccc(Cl)c([N+](=O)[O-])c3)cs2)nc2cc(Cl)c(N3CCCCC3)cc21 (stereo not drawn) | inconclusive [inhibitor, single point] | –
37 | CC(C)c1nc(SCC(=O)Nc2ccc(N3CCOCC3)cc2)c2ccccc2n1 | active: 14.6 µM | –
38 | Cc1ccc(C(=O)Nc2nc3ccccc3n3nnnc23)cc1 | – | inactive: -17.4%
39 | O=c1c2ccccc2nc(-c2ccoc2)n1CCc1ccccc1 | active: 7.31 µM | –
40 | COC(=O)C[C@@H]1CC[C@H](NC(=O)Nc2ccc(F)cc2)[C@@H](CO)O1 | – | inactive: 4.45%
41 | CC(=O)N1CCN(C(=O)c2ccc(Cl)c(NC(=O)c3cccs3)c2)CC1 | – | inactive: -5.85%
42 | CCOC(=O)C1=C(C)NC2=C(C(=O)CCC2)C1c1cn(Cc2ccc(Cl)cc2Cl)nc1-c1ccccc1 (stereo not drawn) | active: 16.4 µM | –
43 | Cc1cc(C)c(Cn2c3ccccc3c3cnn(CC(=O)N4CCCCCC4)c(=O)c32)c(C)c1 | active: 23.1 µM | –
44 | Cc1cccc(C)c1OCC(=O)Nc1nc(-c2ccc(Br)cc2)ns1 | inconclusive [inhibitor, single point] | –
45 | CC(=O)c1ccc(N2CCN(C(=S)Nc3ccccc3)CC2)cc1 | inconclusive [inhibitor, partial curve, poor fit] | –
46 | Cc1ccccc1N1C(=O)C(Oc2ccc(Cl)cc2)C1CNC(C)(C)C (stereo not drawn) | inconclusive [inhibitor, single point] | –

Row | SMILES | Potency | activity change, negative = growth inhibition
47 | CCOc1ccc(C(=O)Nc2c(C(=O)Nc3ccccc3F)oc3ccccc23)cc1OCC | – | inactive: -29.2%
48 | Cc1cccc(-n2nnc(C(=O)NCc3ccc4c(c3)OCO4)c2N)c1 | inconclusive [inhibitor, single point] | –
49 | CCOC(=O)c1cc(OC)c2cccc(CN3CCCC(C)(C(=O)NCCOC)C3)c2c1 (stereo not drawn) | active: 9.2 µM | –
50 | CCOC(=O)C1CCN(c2ccc(-c3cccs3)nn2)CC1 | inconclusive [inhibitor, single point] | –
51 | O=C(Cn1c(=O)n(-c2cccc(Cl)c2)c(=O)c2sc3ccccc3c21)N1CCCC1 | inconclusive [inhibitor, partial curve, poor fit] | –
52 | CC1CCCCC12NC(=O)N(CC(=O)OCC(=O)NC(=O)c1ccccc1)C2=O (stereo not drawn) | – | inactive: -11.2%
53 | CC(C)(C)NC(=O)CCN(/N=C/c1ccccc1)C1=NS(=O)(=O)c2ccccc21 | inconclusive [inhibitor, partial curve] | –
54 | O=C1NC(=O)[C@H]2[C@@H]1[C@@H]1C=C[C@H]2C1 | – | inactive: 8.55%
55 | CC(C)c1ccc(NC(=O)COc2ccc(C3SCCS3)cc2)cc1 | inconclusive [inhibitor, single point] | –
56 | O=C(CCN1C(=O)C2CCCCC2C1=O)Nc1nc(-c2ccccc2)cs1 (stereo not drawn) | inconclusive [inhibitor, single point] | –
57 | CCOC(=O)C1=C(C)N(C)C(=S)NC1c1ccccc1 (stereo not drawn) | – | inactive: 9.18%
58 | COc1ccc([N+](=O)[O-])cc1COc1cc(C)cc2oc(=O)cc(-c3ccccc3)c12 | inconclusive [inhibitor, single point] | –
59 | Cc1ccc(NC(=O)COc2cccc(-n3cnnn3)c2)cc1[N+](=O)[O-] | inconclusive [inhibitor, partial curve] | –
60 | CCOC(=O)CN1C(=O)C(O)(CC(=O)c2cc(OC)ccc2OC)c2ccccc21 (stereo not drawn) | inconclusive [inhibitor, single point] | –
61 | O=C(Nc1ccc(N2CCCC2)cc1)c1ccccc1F | active: 10.3 µM | –
62 | COCCNc1nc(Nc2ccccc2Cl)c2sccc2n1 | inconclusive [inhibitor, single point] | –
63 | CCOc1nc(-c2ccccc2)ccc1-c1noc(-c2ccc(OC)c(OC)c2)n1 | inconclusive [inhibitor, partial curve] | –
64 | COc1ccc(Cc2c(C(C)(C)C)nc3ccc(Cl)cn23)c(C)c1 | inconclusive [inhibitor, single point] | –
65 | CC1C(=O)N(Cc2cn(CCC3OCCCO3)nn2)CCS(=O)(=O)N1Cc1ccc(-c2ccc(Cl)cc2)cc1 (stereo not drawn) | active: 11.6 µM | –
66 | N#Cc1ccc(CN2CC[C@@]3(CCCN(C(=O)c4ccco4)C3)C2)cc1 | – | inactive: 9.34%
67 | CC(=O)c1ccc(NC(=O)c2c3c(nc4ccccc24)C(=O)N(C2CCCCC2)C3)cc1 | active: 20.6 µM | –
68 | Cc1ccc(S(=O)(=O)Cc2nc(-c3ccc(C(=O)NCc4ccccc4)cc3)oc2C)cc1 | inconclusive [inhibitor, single point] | –
